Over roughly 33,000 sequences, “E-score (dimensionless, -0.5 to 0.5)” has its median near -0.058; the highest 2% begin near 0.35. The list shows a part of the results.
tested on: MvaT; assay: PBM 8-mer E-score (mean of HK and ME arrays) (E-score (dimensionless, -0.5 to 0.5)); higher = stronger relative binding preference; most listed sequences are background and not binding sites
Experimental: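 Protein binding microarray: GST-tagged full-length MvaT (P. aeruginosa PAO1) bound to two universal double-stranded 60-mer arrays (ME and HK), each with a constant 25-mer primer and a variable 35-mer region covering all 8-mers. The 8-mer E-score (rank-based, range -0.5 to 0.5, >0.45 = specific binding) is the mean of the two arrays.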

Row | Sequence | PBM 8-mer E-score
1 | GGTCTGCA | -0.158
2 | AAAGGGAC | -0.0794
3 | ATTTCGGG | -0.0342
4 | ACGCTCAT | -0.161
5 | CGCTACGC | -0.225
6 | ACCGGGTC | -0.186
7 | CTACGATC | 0.0594
8 | ACATTTAC | 0.314
9 | CGGCGTAG | -0.196
10 | ACAATTGC | 0.1
11 | ACTCGACA | -0.13
12 | CTTTATAA | 0.344
13 | ACTGGTAT | 0.142
14 | CTCTGTCA | -0.249
15 | ATTCAGAC | 0.0707
16 | CCTAGTGA | -0.228
17 | CTAAAGGC | -0.0414
18 | CGTTTTTA | -0.0211
19 | GGGCATAC | -0.172
20 | CGCAACGA | -0.0798
21 | ATTTCAGA | 0.238
22 | AACTTCGG | 0.138

Row | Sequence | PBM 8-mer E-score
23 | GTTTCATA | 0.223
24 | CAGATGCG | -0.228
25 | TTCGGCAA | -0.00458
26 | CTCAAAAA | 0.0587
27 | AAACTAGG | 0.0438
28 | AGCCCTCA | -0.148
29 | GCCCGTAC | -0.173
30 | CCACAAAC | 0.0225
31 | CGTTCCAA | 0.0493
32 | TAAGAAAA | 0.203
33 | GTTGAACA | 0.011
34 | GGTCCCCA | -0.303
35 | CAGCCTGC | -0.232
36 | CTAAGCGC | -0.0856
37 | CCGTTCCG | -0.348
38 | CGATGTAC | 0.108
39 | ACAAGCAA | 0.00182
40 | AAGGACGG | -0.17
41 | CTCGGACC | -0.281
42 | GAATAATC | 0.188
43 | ACCCCAGA | -0.195
44 | AGCTGCCG | -0.302

Row | Sequence | PBM 8-mer E-score
45 | GTCTACAA | -0.00741
46 | AGACCCAG | -0.134
47 | ACCCGCCA | -0.0778
48 | GTCTGAAA | -0.0498
49 | AACCGTAA | 0.129
50 | CAGATTAA | 0.137
51 | AACGAGAG | -0.094
52 | TAGAGCTA | -0.0766
53 | AATACGGA | 0.106
54 | GGCGCCTA | -0.234
55 | CTTTGTTC | 0.00923
56 | CCCACGGA | -0.185
57 | AGATTAAT | 0.379
58 | AAGGGTGT | -0.175
59 | ATGGTACG | -0.0257
60 | GGTCTCAC | -0.253
61 | AATTCGTG | 0.0577
62 | ATGCACAC | 0.068
63 | CGAACTTC | 0.101
64 | CATGATAG | 0.014
65 | CAAAGCGA | 0.00337
66 | CCTTGCTC | -0.147

Row | Sequence | PBM 8-mer E-score
67 | CAGAAGTC | -0.0107
68 | TATAGCAA | 0.262
69 | GACTGTCA | -0.174
70 | CAAGGGAA | -0.155
71 | CTTTAATC | 0.141
72 | CATACGTC | -0.0873
73 | ACCGCGCC | -0.057
74 | AGTGAACC | -0.148
75 | CACGAAAG | -0.0835
76 | GTCTTAAA | 0.12
77 | CAGCCAGC | -0.363
78 | ATAAGACC | 0.102
79 | GGCGTCCC | -0.291
80 | ATAATCTA | 0.344
81 | CGCCCTAA | 0.00695
82 | CTGTCCCC | -0.2
83 | GACACCAA | -0.0951
84 | AACCTTGA | -0.124
85 | CGCCGGAA | -0.0357
86 | ACCGGCCT | -0.0568
